# This is one part of the list.
# Columns and labels:
# Assay in all cases: glycan array binding signal (z-score within array); higher = stronger binding
# Settings in all cases: glycan notation: IUPAC condensed, linker removed
# Neu5Ac(a2-6)Gal(b1-4)Glc = target: Neu5Ac(a2-6)Gal(b1-4)Glc
# How it was run: (§1)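 Glycan array data came from 3228 arrays in the Consortium for Functional Glycomics database, and only arrays with an available protein sequence were kept. Glycan names were put into IUPAC-condensed notation, and columns mapping to the same glycan were averaged. The binding signal is a within-array Z-score, averaged across arrays of one protein sequence run at different concentrations or buffers and across linkers. A negative Z-score can be read as non-binding.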
# [1] = target: Neu5Ac(a2-6)Gal(b1-4)GlcNAc
# How it was run: as §1
# [2] = target: Neu5Ac(a2-6)Gal(b1-4)GlcNAc(b1-2)Man
# How it was run: as §1
# [3] = target: Neu5Ac(a2-6)Gal(b1-4)GlcNAc(b1-2)Man(a1-3)Man(b1-4)GlcNAc(b1-4)GlcNAc
# How it was run: as §1
# [4] = target: Neu5Ac(a2-6)Gal(b1-4)GlcNAc(b1-2)Man(a1-3)[Gal(b1-4)GlcNAc(b1-2)Man(a1-6)]Man(b1-4)GlcNAc(b1-4)GlcNAc
# How it was run: as §1
# [5] = target: Neu5Ac(a2-6)Gal(b1-4)GlcNAc(b1-2)Man(a1-3)[GlcNAc(b1-2)Man(a1-6)]Man(b1-4)GlcNAc(b1-4)GlcNAc
# How it was run: as §1
# [6] = target: Neu5Ac(a2-6)Gal(b1-4)GlcNAc(b1-2)Man(a1-3)[GlcNAc(b1-4)][Neu5Ac(a2-6)Gal(b1-4)GlcNAc(b1-2)Man(a1-6)]Man(b1-4)GlcNAc(b1-4)GlcNAc
# How it was run: as §1
# [7] = target: Neu5Ac(a2-6)Gal(b1-4)GlcNAc(b1-2)Man(a1-3)[Man(a1-6)]Man(b1-4)GlcNAc(b1-4)GlcNAc
# How it was run: as §1
# [8] = target: Neu5Ac(a2-6)Gal(b1-4)GlcNAc(b1-2)Man(a1-3)[Neu5Ac(a2-3)Gal(b1-4)GlcNAc(b1-2)Man(a1-6)]Man(b1-4)GlcNAc(b1-4)GlcNAc
# How it was run: as §1
# [9] = target: Neu5Ac(a2-6)Gal(b1-4)GlcNAc(b1-2)Man(a1-3)[Neu5Ac(a2-6)Gal(b1-4)GlcNAc(b1-2)Man(a1-6)]Man(b1-4)GlcNAc(b1-4)GlcNAc
# How it was run: as §1
# [10] = target: Neu5Ac(a2-6)Gal(b1-4)GlcNAc(b1-2)Man(a1-3)[Neu5Ac(a2-6)Gal(b1-4)GlcNAc(b1-2)Man(a1-6)]Man(b1-4)GlcNAc(b1-4)[Fuc(a1-6)]GlcNAc
# How it was run: as §1
# [11] = target: Neu5Ac(a2-6)Gal(b1-4)GlcNAc(b1-2)Man(a1-6)Man(b1-4)GlcNAc(b1-4)GlcNAc
# How it was run: as §1
# [12] = target: Neu5Ac(a2-6)Gal(b1-4)GlcNAc(b1-2)Man(a1-6)[Gal(b1-4)GlcNAc(b1-2)Man(a1-3)]Man(b1-4)GlcNAc(b1-4)GlcNAc
# How it was run: as §1
# [13] = target: Neu5Ac(a2-6)Gal(b1-4)GlcNAc(b1-2)Man(a1-6)[GlcNAc(b1-2)Man(a1-3)]Man(b1-4)GlcNAc(b1-4)GlcNAc
# How it was run: as §1
# [14] = target: Neu5Ac(a2-6)Gal(b1-4)GlcNAc(b1-2)Man(a1-6)[Man(a1-3)]Man(b1-4)GlcNAc(b1-4)GlcNAc
# How it was run: as §1
# [15] = target: Neu5Ac(a2-6)Gal(b1-4)GlcNAc(b1-2)[Neu5Ac(a2-6)Gal(b1-4)GlcNAc(b1-4)]Man(a1-3)[GlcNAc(b1-4)][Neu5Ac(a2-6)Gal(b1-4)GlcNAc(b1-2)[Neu5Ac(a2-6)Gal(b1-4)GlcNAc(b1-6)]Man(a1-6)]Man(b1-4)GlcNAc(b1-4)GlcNAc
# How it was run: as §1
# [16] = target: Neu5Ac(a2-6)Gal(b1-4)GlcNAc(b1-2)[Neu5Ac(a2-6)Gal(b1-4)GlcNAc(b1-4)]Man(a1-3)[GlcNAc(b1-4)][Neu5Ac(a2-6)Gal(b1-4)GlcNAc(b1-4)Man(a1-6)]Man(b1-4)GlcNAc(b1-4)GlcNAc
# How it was run: as §1
# [17] = target: Neu5Ac(a2-6)Gal(b1-4)GlcNAc(b1-2)[Neu5Ac(a2-6)Gal(b1-4)GlcNAc(b1-6)]Man(a1-6)[Neu5Ac(a2-6)Gal(b1-4)GlcNAc(b1-2)Man(a1-3)][GlcNAc(b1-4)]Man(b1-4)GlcNAc(b1-4)GlcNAc
# How it was run: as §1
# [18] = target: Neu5Ac(a2-6)Gal(b1-4)GlcNAc(b1-3)Gal(b1-3)GlcNAc
# How it was run: as §1
# [19] = target: Neu5Ac(a2-6)Gal(b1-4)GlcNAc(b1-3)Gal(b1-4)GlcNAc
# How it was run: as §1
# [20] = target: Neu5Ac(a2-6)Gal(b1-4)GlcNAc(b1-3)Gal(b1-4)GlcNAc(b1-2)Man(a1-3)[Neu5Ac(a2-6)Gal(b1-4)GlcNAc(b1-3)Gal(b1-4)GlcNAc(b1-2)Man(a1-6)]GalNAc
# How it was run: as §1
# [21] = target: Neu5Ac(a2-6)Gal(b1-4)GlcNAc(b1-3)Gal(b1-4)GlcNAc(b1-3)Gal(b1-4)GlcNAc
# How it was run: as §1
# [22] = target: Neu5Ac(a2-6)Gal(b1-4)GlcNAc(b1-3)Gal(b1-4)GlcNAc(b1-3)Gal(b1-4)GlcNAc(b1-2)Man(a1-3)[Neu5Ac(a2-6)Gal(b1-4)GlcNAc(b1-3)Gal(b1-4)GlcNAc(b1-3)Gal(b1-4)GlcNAc(b1-2)Man(a1-6)]GalNAc
# How it was run: as §1
binder,measurement,setting,value
AidA (Burkholderia cenocepacia) (protein) MSRVTDVLVSFDTETILKKYPNPSKNPAAPTLIDWRYVYMVTNQDNVISGQAGGELDLKAQVGDLIRWRETSLSLGFENQVVFYKFIGNVGNDLISTPTPRVAEASIPVPNTSKPEVPTCQKVANYYWSSECLKVGRVTYHFQFQIIDRNCQSQGCFSWDPFISIHN,glycan array binding signal (z-score),Neu5Ac(a2-6)Gal(b1-4)Glc,-0.136
same,glycan array binding signal (z-score),[1],-0.035
same,glycan array binding signal (z-score),[2],0.236
same,glycan array binding signal (z-score),[3],-0.123
same,glycan array binding signal (z-score),[4],-0.012
same,glycan array binding signal (z-score),[5],-0.443
same,glycan array binding signal (z-score),[6],-0.426
same,glycan array binding signal (z-score),[7],-0.961
same,glycan array binding signal (z-score),[8],-0.45
same,glycan array binding signal (z-score),[9],0.223
same,glycan array binding signal (z-score),[10],0.19
same,glycan array binding signal (z-score),[11],-0.428
same,glycan array binding signal (z-score),[12],0.622
same,glycan array binding signal (z-score),[13],-0.384
same,glycan array binding signal (z-score),[14],0.17
same,glycan array binding signal (z-score),[15],-0.863
same,glycan array binding signal (z-score),[16],-0.014
same,glycan array binding signal (z-score),[17],-0.793
same,glycan array binding signal (z-score),[18],-0.665
same,glycan array binding signal (z-score),[19],-0.726
same,glycan array binding signal (z-score),[20],0.282
same,glycan array binding signal (z-score),[21],-0.437
same,glycan array binding signal (z-score),[22],-0.571

# From the supplement of paper PMC8728848
